Out of some 220,000 compounds screened, about 16,000 (7.3%) were called active. This list was built around the results that the source calls inconclusive (neither active nor inactive); the mix of calls is not that of the screen. The call rests on the fitted dose curve; in most records, active means well fitted inhibition curve with a large enough effect (not every such curve was filed as active); inconclusive means small, poorly fitted or top-dose-only effect, or another doubt; inactive means no such curve, though single readings can be large or run the other way. Potencies of inconclusive entries are left out as doubtful fits.
Biological target: Aldehyde dehydrogenase 1A1 (Homo sapiens) (UniProt P00352)
Assay: qHTS Assay for Inhibitors of Aldehyde Dehydrogenase 1 (ALDH1A1);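 on activity, negative = inhibition: plate controls were no enzyme wells and a reference inhibitor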
Conditions: Purified ALDH1A1, NADH fluorescence, propionaldehyde substrate; series mostly up to 75.3 µM; activity, negative = inhibition: at the top concentration
Potency means the concentration at half of the fitted maximal effect; tags describe the fitted curve by direction and shape.

Sequence of UniProt P00352 (P00352 whole entry, looked up): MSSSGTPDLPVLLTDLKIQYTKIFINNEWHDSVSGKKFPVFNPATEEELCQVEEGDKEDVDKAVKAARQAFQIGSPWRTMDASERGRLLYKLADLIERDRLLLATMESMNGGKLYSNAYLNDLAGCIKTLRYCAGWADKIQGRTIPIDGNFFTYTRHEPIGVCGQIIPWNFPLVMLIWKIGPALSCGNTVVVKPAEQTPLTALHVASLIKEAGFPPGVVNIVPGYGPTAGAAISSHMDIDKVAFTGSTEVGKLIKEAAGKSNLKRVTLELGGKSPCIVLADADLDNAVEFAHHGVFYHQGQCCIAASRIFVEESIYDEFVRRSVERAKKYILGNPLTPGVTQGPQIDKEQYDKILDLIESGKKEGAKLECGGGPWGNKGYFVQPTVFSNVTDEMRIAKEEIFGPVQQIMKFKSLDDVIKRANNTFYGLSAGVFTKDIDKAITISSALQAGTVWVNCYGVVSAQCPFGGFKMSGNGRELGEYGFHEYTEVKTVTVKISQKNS

| SMILES | Potency | activity, negative = inhibition |
| --- | --- | --- |
| O=C(NCc1ccco1)c1cc([N+](=O)[O-])ccc1N1CCOCC1 | inconclusive [inhibitor, single point] | – |
| O=C(/C=C/Nc1nccs1)C(F)(F)Cl | inconclusive [inhibitor, single point] | – |
| O=C(Oc1ccc2ccc(=O)oc2c1)C1CCCCC1 | inconclusive [inhibitor, partial curve] | – |
| COc1ccccc1N1CCN(Cc2ccc(Br)o2)CC1 | active: 12.6 µM | – |
| CCC(=O)NC(=S)NNC(=O)c1ccc(O)cc1 | inconclusive [inhibitor, single point] | – |
| CN(C)c1ccc(CC(=O)c2nc3ccccc3s2)cc1 | active: 7.08 µM | – |
| Cc1nc(-c2cccc(S(=O)(=O)N3CCC(C)CC3)c2)cs1 | inconclusive [inhibitor, partial curve] | – |
| O=C(O)C1CSC(c2coc3ccccc3c2=O)N1 (stereo unspecified) | inconclusive [inhibitor, partial curve] | – |
| CCc1nnc(NS(=O)(=O)c2ccc(NC(=O)c3ccco3)cc2)s1 | inconclusive [inhibitor, single point] | – |
| CC(C)Nc1ncnc2c1nnn2Cc1ccccc1 | active: 12.6 µM | – |
| COCCn1c(-c2ccccc2)nc2c(c(=O)c3ccccc3n2C)c1=O | – | inactive: -4.17% |
| COc1ccc(C2c3sc(=O)[nH]c3SC3C4CCC(C4)C23)cc1 (stereo unspecified) | active: 22.4 µM | – |
| O=C(COC(=O)COc1ccc(Nc2ccccc2)cc1)NCc1ccco1 | inconclusive [inhibitor, single point] | – |
| Cn1cc(Cl)c(C(=O)Nc2nc3ccc(Cl)cc3s2)n1 | inconclusive [inhibitor, single point] | – |
| COc1ccccc1-c1cc(NCc2cccnc2)ncn1 | inconclusive [inhibitor, single point] | – |
| O=C(OC(C(=O)Nc1ccc(Cl)cc1C(F)(F)F)c1ccccc1)c1c(Cl)cccc1Cl (stereo unspecified) | active: 3.16 µM | – |
| COc1cc2c(cc1OC)CN(CC(=O)Nc1ccccc1C#N)CC2 | inconclusive [inhibitor, single point] | – |
| CCCN(CC(=O)Nc1ccc(Cl)cc1Cl)C(=O)/C=C/c1cc(OC)ccc1OC | inconclusive [inhibitor, partial curve] | – |
| CCOc1ccc(CCNC(=O)C2=C(C)C(=O)OC23CCC(C)CC3)cc1 (stereo unspecified) | – | inactive: -0.649% |
| Cc1ccccc1-c1cc(Nc2ccccc2)ncn1 | inconclusive [inhibitor, partial curve, poor fit] | – |
| c1ccc(CSc2nnc3c(n2)OC(c2ccco2)Nc2ccccc2-3)cc1 (stereo unspecified) | inconclusive [inhibitor, single point] | – |
| O=C(/C=C/c1nc2ccccc2s1)N1CCCCCC1 | inconclusive [inhibitor, partial curve] | – |
| CCCN1CCC(N2CCN(c3cccc(C(F)(F)F)c3)CC2)CC1 | inconclusive [inhibitor, partial curve] | – |

| SMILES | Potency | activity, negative = inhibition |
| --- | --- | --- |
| Cc1ccc(Nc2nnc(SCC(=O)NC(Cc3c[nH]c4ccccc34)C(=O)O)s2)cc1 (stereo unspecified) | inconclusive [inhibitor, single point] | – |
| COc1cccc(C(=O)NC(=S)Nc2ccc3oc(=O)ccc3c2)c1 | active: 1.41 µM | – |
| O=C(NCc1ccccc1)Nc1cccn(Cc2ccc(Cl)cc2)c1=O | inconclusive [inhibitor, partial curve] | – |
| CCOc1ccc2cc(C#N)c(SCC(=O)OC)nc2c1 | inconclusive [inhibitor, single point] | – |
| COCCn1c(SCC(=O)Nc2cc(C)nn2-c2ccccc2)nnc1-c1ccncc1 | – | inactive: 3.47% |
| CN(C(=O)Cn1cc(C#N)c2ccccc21)c1ccccc1 | inconclusive [inhibitor, single point] | – |
| Cc1cccc(Nc2cnn(C34CC5CC(CC(CC(=O)O)(C5)C3)C4)c(=O)c2Cl)c1 | inconclusive [inhibitor, partial curve] | – |
| CC(=O)Nc1ccc(C(C#N)c2ccccc2)cc1 (stereo unspecified) | active: 14.1 µM | – |
| Cc1ccc(NC(=O)c2cc(S(=O)(=O)N3CCOCC3)c(Br)s2)cc1 | inconclusive [inhibitor, partial curve] | – |
| CN1CCN(C(=O)c2cc3nc(-c4ccc(F)cc4)cc(C(F)(F)F)n3n2)CC1 | – | inactive: -6.14% |
| COc1ccc(-c2cc(N)n(S(=O)(=O)c3c(F)c(F)c(F)c(F)c3F)n2)cc1OC | active: 31.6 µM | – |
| Cc1ccc(NC(=O)CCn2cnc3cc(C)c(C)cc32)cc1 | inconclusive [inhibitor, single point] | – |
| CCCCC1=CC2=C(OC(C)=O)C(=O)C(C)(OC(=O)CCC(=O)OC)C(=O)C2=CO1 (stereo unspecified) | – | inactive: 0.107% |
| COC1=CC(=O)OC12CCCCC2 | – | inactive: 2.35% |
| COc1cc(OC)cc(-c2nc3ccccc3s2)c1 | inconclusive [inhibitor, full curve, poor fit] | – |
| O=c1[nH]c2cc3c(cc2cc1CN(CCN1CCOCC1)C(=S)NCC1CCCO1)OCO3 (stereo unspecified) | inconclusive [inhibitor, single point] | – |
| N#CCCSc1nc(N2CCOCC2)c2c(c1C#N)CCCC2 | active: 12.6 µM | – |
| O=c1[nH]sc2ccccc12 | inconclusive [inhibitor, partial curve] | – |
| O=C1Nc2ccc(Cl)cc2C12Nc1ccccc1-c1nnc(SCc3ccccc3F)nc1O2 (stereo unspecified) | inconclusive [inhibitor, single point] | – |
| O=C(/C=C/c1ccccc1[N+](=O)[O-])OC1CCCCC1=O (stereo unspecified) | inconclusive [inhibitor, partial curve] | – |
| COc1ccc(C2Nc3ccccc3C(=O)N2NS(=O)(=O)c2ccccc2)cc1 (stereo unspecified) | inconclusive [inhibitor, single point] | – |
| CC(Sc1nc(-c2ccccc2)cc(C(F)(F)F)n1)C(=O)N1CCCCC1 (stereo unspecified) | – | inactive: -9.59% |
| Cc1ccc(C)c(NC(=O)CN(C)C(=O)[C@@H](NC(=O)c2ccc(C(C)(C)C)cc2)C(C)C)c1 | – | inactive: -6.43% |

— PubChem BioAssay AID1030 (National Center for Advancing Translational Sciences (NCATS), 2008)
